Structures can show the parent of a compound that is named as a salt. This is one part of the list. Most values come without repeats; read them as rough.
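Note: primary screen of an FDA-approved drug library in HeLa reporter cells in 96-well format, CellMask signal normalized to DMSO-treated wells set as 1, under 0.5 deemed highly cytotoxic.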

The subject of this assay is HeLa VPS33A reporter cells. In words: relative cell viability (CellMask signal) vs DMSO (fraction of DMSO); HeLa model of a glycosaminoglycan (GAG) storage disease; KI is knock-in and KO knock-out; SDC1 is syndecan 1; higher = less cytotoxic. The following applies: 50 µM; 24 h.
The compound `CC=CC(=O)N(CC)c1ccccc1C` [Crotamiton] displayed a relative cell viability of 1.04.
As for `CCn1cc(C(=O)O)c(=O)c2cnc(N3CCCC3)nc21` [Piromidic Acid], the figure is 1.08; as for `NS(=O)(=O)NCCNc1nonc1/C(=N/O)Nc1ccc(F)c(Br)c1`, 1.18; as for `Cc1c(NC(=O)c2cccnc2)c(=O)n(-c2ccccc2)n1C` [Nifenazone], 1.11.
As for `Cc1cn(-c2cc(NC(=O)c3ccc(C)c(Nc4nccc(-c5cccnc5)n4)c3)cc(C(F)(F)F)c2)cn1` [Nilotinib monohydrochloride monohydrate], the relative cell viability worked out at 1.09.
As for `O=c1[nH]cnc2c1ncn2[C@H]1CC[C@@H](CO)O1` [Didanosine], the figure is 1.51.
Take `Cc1ncc([N+](=O)[O-])n1CC(O)CCl` (stereo not drawn) [Ornidazole]: the relative cell viability came to 1.13.
`NC(CO)(CO)CO` [Trometamol] gave a relative cell viability of 1.14.
As for `CC(=O)OCC[N+](C)(C)C` [Acetylcholine Chloride], the relative cell viability is 0.994.
As for `C1COC(NC(C2CC2)C2CC2)=N1` [Rilmenidine Phosphate], the figure is 1.03.
As for `NCCCS(=O)(=O)O` [Tramiprosate], the figure is 1.04; as for `CC[C@H]1OC(=O)[C@H](C)[C@@H](O[C@H]2C[C@@](C)(OC)[C@@H](O)[C@H](C)O2)[C@H](C)[C@@H](O[C@@H]2O[C@H](C)C[C@H](N(C)C)[C@H]2O)[C@](C)(O)C[C@@H](C)[C@@H]2N[C@@H](COCCOC)O[C@H]([C@H]2C)[C@]1(C)O` [Dirithromycin], 0.947.
In turn, `CCOC(=O)[C@H](CCc1ccccc1)N[C@@H](C)C(=O)N1[C@H](C(=O)O)C[C@@H]2CCC[C@@H]21` [Ramipril] returned a relative cell viability of 1.06.

The values above are taken from the supplement of paper PMC12355420.
